# Experimental data from publication PMC12162846, “Tripartite motif-containing protein 26 promotes colorectal cancer growth by inactivating p53” (Cell Death and Differentiation, 2025).
# T1: Purified TRIM26 (Flag-TRIM26 digested by PreScission Protease) (UniProt Q12899 1-539)
# T1 construct: TRIM26; domain limits printed up to aa539; The legend says that Flag-TRIM26 was digested by PreScission Protease; how it was made and purified may stand in the Supplementary Information; source: purified or protein lysates containing TRIM26
# T1 sequence (looked up): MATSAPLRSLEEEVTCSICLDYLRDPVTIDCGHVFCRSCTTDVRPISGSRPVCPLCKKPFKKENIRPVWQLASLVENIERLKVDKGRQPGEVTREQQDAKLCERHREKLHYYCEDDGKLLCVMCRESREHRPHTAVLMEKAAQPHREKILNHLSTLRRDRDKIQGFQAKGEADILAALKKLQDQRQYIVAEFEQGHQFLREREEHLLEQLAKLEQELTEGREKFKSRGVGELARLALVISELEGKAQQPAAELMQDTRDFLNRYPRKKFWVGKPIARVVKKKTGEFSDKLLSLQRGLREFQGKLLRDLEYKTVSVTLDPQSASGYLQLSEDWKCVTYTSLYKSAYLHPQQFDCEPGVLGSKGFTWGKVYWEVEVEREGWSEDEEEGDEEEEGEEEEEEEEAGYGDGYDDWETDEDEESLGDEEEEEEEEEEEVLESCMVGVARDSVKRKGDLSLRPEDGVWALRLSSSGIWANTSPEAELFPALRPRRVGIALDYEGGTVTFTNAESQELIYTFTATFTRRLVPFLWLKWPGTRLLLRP
# B1: GST-p53 C-terminal domain ([…]) (domain or fragment)
# chain: not shown
# notes: also called the C-terminus of p53; source: purified GST-fusion protein on beads
# Molecular target: T1, Purified TRIM26 (Flag-TRIM26 digested …)
# Assay: pull-down; GST-p53 or GST-MDM2 and their fragments on beads, incubated with TRIM26 at RT for 40 min; bound TRIM26 detected by Western blot with TRIM26 antibody
# Settings: both partners purified
binder,measurement,value
B1,binding result,binds
